From the supplement of paper PMC10126150
Values marked as one replicate rest on one cluster of the flow cell; about a third of the high ones do not repeat.

Test system: ATP
Assay: switch fluorescence ratio, 500 uM ATP over buffer (Cy3 cluster intensity, sum of 5 cycles each) (fold (ratio)); higher = stronger signal-on switching upon ATP binding; sequences stand for … in TCGTCGGCAGCGTCAGATGTGTATAAGAGACAGTTTTTTTTTTTTTTTTTTTTTTTTT…TC
Conditions: aptamer strand: ATP DNA aptamer (quencher-CACCTGGGGGAGTATTGCGGAGGAAGG + anchor), 100 nM annealed; ATP concentration: 500 uM; one replicate
Summary of the method: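 The fluorescence ratio divides summed target-cycle Cy3 intensity by summed buffer-cycle Cy3 intensity for each cluster and is averaged per switch-domain sequence. Cy3-labelled switching-strand clusters on a modified Illumina MiSeq flow-cell were annealed to 100 nM quencher-labelled ATP aptamer, then imaged in selection buffer and again after 15 min with 500 uM ATP at 22 °C. Five such cycles were run, with NaOH stripping and re-annealing between them, and clusters outside 100-1000 RFU were excluded.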
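Further: ATP exposure 15 min at 22 °C before imaging.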

Sequence | switch fluorescence ratio
TCGTAATCC | 2.22
CCTACCGGGA | 1.48
TGTTCAAGTA | 0.983
AAGGACCCTC | 1.03
ATAAAGGTGC | 1.23
ATTTGGAATA | 1.02
TGCGATGCAT | 1.11
CTCTGTCCG | 0.989
CCAGTTTCG | 1.02
GCGGTTCACG | 1.02
TTGTTATGGG | 1.09
GCACCTATCG | 1.05
GTATTTTCTT | 1.01
CTCTGTTAGG | 1
AGTGCTGTAT | 0.971
GTCGAACTTA | 1.01
GTATCAGGTC | 1
AAAAGCGAGA | 0.972
GCCAAGTAAG | 0.996
TCCTTGCAT | 3.35
TGCCCCTCTT | 0.971
ACAACTTAGC | 1.03
GCTTGTTTCT | 1.02

Sequence | switch fluorescence ratio
GATCCTGCCA | 1.04
TAATGAGATT | 0.985
CTCTTCAGCG | 1.02
CGAGGTGTAA | 0.948
TGAGTGCCCT | 1
CTCTTGACTG | 1.03
AGCGGGACGG | 0.983
TCAACGGGGA | 1.03
CATTATGGCA | 0.98
ATGCAGAGCA | 0.99
CGGGTGTTC | 1.04
GACCAAACGA | 1.3
CGGTACCCGT | 0.987
AGGGACGCCG | 1.05
GGGGGGTA | 0.995
CTGACATTCT | 1.05
TGAAGATCGG | 0.956
ACAGGGCACA | 1.11
CCGTGGCTGA | 1.04
TAGTGCTATT | 0.972
TAACAAGGGG | 0.983
CGTTATGGTA | 0.956
CCAAAACAAA | 0.957

Sequence | switch fluorescence ratio
AACCAGAA | 0.997
CCTAGGTCTA | 1.01
AACAGGAGCG | 0.946
TGGTTATTGA | 1
GTAATGAAAG | 0.976
TCTCGGTGGT | 1.06
TAAGATGCAG | 1.06
GTAAGACTTT | 1.3
ACGTAATCTG | 1.17
AATTAGTGG | 1.03
GGGGTTGGAT | 1
CGCCAAGTTC | 1.03
ACTCTGGAAA | 1.09
TTATCAGCAA | 2.28
TAGCACTGAA | 1.04
GTTCAGCATT | 1.1
TGAAAATAAT | 0.985
AGGAAGGATC | 1.01
CATGTATAAT | 0.954
CGTCATTCAC | 1.23
CAAATGAGTT | 1
ACGGGGGTCA | 0.992
GATTTCGTGG | 1.01

Sequence | switch fluorescence ratio
TGAAAGTGTA | 1.08
ACTCGCCTAT | 1.08
AGTTTTCGCA | 1
AAGGATACTC | 1.12
AGTGCCTAAT | 1.06
GACAAATCTT | 1.06
GCGCTGGGAA | 0.98
ACCCAATTCC | 1.17
CCATCCGAGC | 2.18
GCTATGAGG | 0.966
AGACAACATT | 1.02
AAAGTTTAAT | 0.954
TCAACGGG | 1.04
GTCGTCGTGC | 1.05
GGATCCTACA | 0.984
GGAGCCTCAC | 1.16
TGTGAGTGGA | 1.03
GCTGTTAGGT | 0.966
GTCTTTTGAG | 0.961
TGCCGTAGAA | 0.997
CGTGGAAGG | 1.05
GCTCTGGAAA | 1.09
TAGGTTGGCA | 1

Sequence | switch fluorescence ratio
GCCTACAGCT | 0.996
GAAGGCAGTA | 1.04
GAGGTTTTCT | 1
GCTGCTAGGG | 0.995
ACTCGTTCTT | 0.985
CCAAATTCTG | 0.936
ATGTACAGAC | 1.24
TTACTGTTTT | 0.969
ACAAATTTAC | 1.1
AGCAACGTCA | 1.03
GACGAAGGAC | 2.03
GCCGAAGATT | 1.01
GGTGGACGGT | 1.01
GTTACAGTTG | 0.992
AATGTCTGTT | 0.966
CTATGTGTGT | 0.97
GCTTAGATGC | 0.946
TCCTTAAATC | 1.14
CCCGTTGTGA | 1.02
CTTGATCACG | 0.992
GGTCATCTGT | 0.935
TCCAGCAGTT | 0.998
GTTGCGGGTC | 0.996

Sequence | switch fluorescence ratio
AGAGATGTCT | 1.06
CGCTAATGCT | 2.54
GATCGCGGTG | 1.04
TATCCACGGC | 1.06
TTCGGTATAA | 1.05
TGTCTTTTCG | 0.995
CAGGTATTAT | 0.997
ACAAATTTTA | 0.994
GCTTTAAACA | 1
GAGTAAGTTG | 0.975
CCAGATAGAT | 1.04
AGTTCGGCGG | 1.02
CGATAAGGCT | 0.989
TACTGCGGGG | 1.03
CATGCCAGTT | 0.969
TGATGGATCA | 0.998
TCTACCGGAC | 1.79
CTACCTGGGA | 0.999
GAAGCTGCGT | 1.02
AGTTAGGCTT | 0.987
GTTTTGAAAT | 1.05
TCTGAAACAC | 1.18
GCATTCGTTC | 1.06

Sequence | switch fluorescence ratio
TTCATATTA | 1.02
GCGCAGTTAT | 1.07
AAGTCTGCTA | 1.01
TCAAGTATA | 1.03
CGTATCTGGG | 1
TCTGATATTG | 1.03
ACTCGCGATT | 1.48
GCCATACGT | 1.14
GACAGCGTTC | 1.09
GCAATCCAGG | 5
ACTTAGTTCG | 1.05
ACGCTCATGC | 1.82
AGGACGTAAA | 1.08
TTTCCAGAAA | 0.992
GCAGATAGGC | 1.02
TATATGGCTG | 0.953
TTCGTGGACA | 0.957
TCAGAACTCT | 1.04
AAGCGGTGCT | 1.02
